# Source: PubChem BioAssay AID686978 (National Center for Advancing Translational Sciences (NCATS), 2013)
# Out of some 420,000 compounds screened, about 64,000 (15%) were called active. This list was built around the results that the source calls inconclusive (neither active nor inactive); the mix of calls is not that of the screen. Calls come from the whole dose curve; as a rule, active = well fitted inhibition curve with a large enough effect; inconclusive = small, poorly fitted or top-dose-only effect; inactive = flat fitted curve, though single readings scatter. No potency is given beside an inconclusive call; the fits are too rough.
# Assay: qHTS for Inhibitors of human tyrosyl-DNA phosphodiesterase 1 (TDP1): qHTS in cells in absence of CPT; note: nearly all actives have a fitted effect of over 55% in size
# Conditions: DT40 Tdp1-/- hTDP1 cells, no CPT, ATP luminescence, 48 h; activity change, negative = growth inhibition: at 46.2 µM (top of the series) unless noted
# Summary of the method: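 Camptothecin absent (DMSO only). Human TDP1-complemented DT40 knockout cells, 400 cells/well, 37 °C for minimum 48 hr; ATP measured via CellTiter-Glo, 30 min dark incubation, luminescence.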
# % is set by controls: 0 for no effect and ±100 for the full control effect; potency is the fitted concentration of half-maximal effect; tags give direction and shape of the fitted curve.
SMILES,Potency,"activity change, negative = growth inhibition"
COc1ccc(N2CCN(C(CNC(=O)c3cccc(OC)c3)c3cccnc3)CC2)cc1 (configuration not stated),"inconclusive [inhibitor, partial curve, poor fit]",
CCOC(=O)C(=O)N(C)c1c(CC)nc2c(OCc3ccc(Cl)cc3)cccn12,"inconclusive [inhibitor, single point]",
CCOC(=O)N1CCN(CCC(=O)Nc2ccc(C)cc2)CC1,inactive,
COc1ccc(-c2cc(C(F)(F)F)n3nc(C(=O)Nc4sc5c(c4C(=O)OC(C)C)CCCC5)cc3n2)cc1OC,inactive,
CCN(CC)C(=O)C1CCN(c2cc(C)nc3c(-c4ccc(OC)c(OC)c4)c(C)nn23)CC1,"inconclusive [inhibitor, partial curve, poor fit]",
CCCN1CCN(C(=O)CCCn2c(C)c3cnn(-c4ccccc4)c(=O)c3c2C)CC1,inactive,
COc1ccc2c(c1)O/C(=C\c1ccco1)C2=O,inactive,
O=C(N/N=C/C(Br)=C/c1ccccc1)NC1CCCCC1,active: 14.6 µM,
Cc1sc2ncnc(N3CCC(C(=O)NNC(=O)COc4ccccc4F)CC3)c2c1C,"inconclusive [inhibitor, single point]",
COCCCNC(=O)C(C#N)c1nc2ccccc2nc1N1CCN(Cc2ccccc2)CC1 (configuration not stated),"inconclusive [inhibitor, single point]",
O=S(=O)(Nc1ccc2cn[nH]c2c1)c1ccccc1,inactive,
CCOC(=O)CNC(=S)SC,inactive,
NC(=O)C[C@H](NC(=O)c1ccc(Cl)cc1)C(=O)OCc1ccccc1,"inconclusive [inhibitor, single point]",
CCCCNC(=O)CSC1=Nc2ccccc2C2=NC(CCC(=O)NCc3ccccc3OC)C(=O)N12 (configuration not stated),"inconclusive [inhibitor, single point]",
CC1(C)Cc2c(sc(NC(=O)c3ccc4c(c3)OCCO4)c2C(N)=O)C(C)(C)N1,inactive,
COCCN(C(=S)Nc1c(C)cccc1C)C(C)c1ccco1 (configuration not stated),inactive,
CCc1ccc(NC(=O)CSc2cn(CC(=O)N3CCOCC3)c3ccccc23)cc1,"inconclusive [inhibitor, single point]",
CC(C)=NOc1nc(N(C)C)nc(N2CCOCC2)n1,"inconclusive [inhibitor, single point]",
Cc1ccc(-c2nc3cccnc3s2)cc1NS(=O)(=O)c1ccc2c(c1)CCCC2,"inconclusive [inhibitor, partial curve]",
Cc1ccc(S(=O)(=O)N(C)C)cc1-n1c(SCC(=O)Nc2ccc(F)cc2Cl)nc2ccccc2c1=O,active: 16.4 µM,
CCC(=O)Nc1nnc(SCC(=O)Nc2cccc(Cl)c2)s1,inactive,
CC(C)(C)C(=O)Nc1cccc2[nH]ncc12,inactive,
COC(=O)c1ccccc1NS(C)(=O)=O,inactive,
O=c1oc2c(O)c(O)cc3c(=O)oc4c(O)c(O)cc1c4c23,inactive,

SMILES,Potency,"activity change, negative = growth inhibition"
O=C1CC2(CCCC2)CC(=O)N1CCCCNC[C@H]1COc2ccccc2O1,"inconclusive [inhibitor, single point]",
c1ccc(-c2ccc(N3CCCC4(CCNCC4)C3)cc2)cc1,active: 2.59 µM,
O=C1C=C(c2ccc(C(=O)O)cc2)C[C@@H](c2ccc3c(c2)OCO3)C1,inactive,
O=C(NCC1CCCO1)c1ccc(NS(=O)(=O)c2cccs2)cc1 (configuration not stated),inactive,
O=C(CSCCO)Nc1ccc(C23CC4CC(CC(C4)C2)C3)cc1,"inconclusive [inhibitor, partial curve]",
O=[N+]([O-])c1ccc(CN2CCC(Cc3ccccc3)CC2)cc1,"inconclusive [inhibitor, single point]",
CC(CC(=O)NCc1ccc(Cl)cc1Cl)CC1=NS(=O)(=O)c2ccccc2N1 (configuration not stated),"inconclusive [inhibitor, partial curve]",
Cc1cccc(OCCNc2cc(N3CCOCC3)ccc2[N+](=O)[O-])c1,"inconclusive [inhibitor, partial curve, poor fit]",
O=C(COC(=O)c1n[nH]c2ccccc12)NCCc1ccccc1,"inconclusive [inhibitor, single point]",
O=c1c2c(nc3c(-c4ccc(Cl)cc4)c[nH]n13)CCC2,active: 4.61 µM,
CCOc1cc(/C=C2\SC(=N)N(c3nonc3N)C2=O)ccc1OCC(N)=O,,inconclusive: -35.2% [inhibitor]
COc1ccc(NC(=O)C[C@H]2C(=O)N(Cc3ccccc3)C[C@@H]2Cc2ccccc2)cc1,"inconclusive [inhibitor, single point]",
O=C(c1ccco1)N1CCC(c2nc3c(nnn3Cc3c(Cl)cccc3Cl)c(=O)[nH]2)CC1,"inconclusive [inhibitor, partial curve]",
Cc1ccc(/C=C/c2nc3ccccc3n2S(=O)(=O)c2cccc(Cl)c2)cc1,active: 10.3 µM,
Cc1ccc(-c2cc(C(=O)N(C)CC(=O)Nc3ccccc3Br)c3ccccc3n2)o1,"inconclusive [inhibitor, single point]",
COc1ccc(C2CC(c3ccccc3Br)=NN2c2ccc(S(N)(=O)=O)cc2)cc1 (configuration not stated),inactive,
COc1ccccc1NC(=O)C1=C(C)Nc2c(C(=O)Nc3cccc(C)c3)cnn2C1c1ccccc1C (configuration not stated),"inconclusive [inhibitor, single point]",
O=c1c2sccc2n(Cc2cccc(F)c2)c(=O)n1-c1ccc(F)cc1,active: 18.4 µM,
O=C(CCn1c(=O)c2cccn2c2cccnc21)NCc1ccc(Cl)cc1,"inconclusive [inhibitor, partial curve]",
Cc1ccc(C(=O)NCC(=O)OCCCOC(=O)CNC(=O)c2ccc(C)c(C)c2)cc1C,inactive,
CN(c1ccccc1C(=O)Nc1ccc(S(=O)(=O)N2CCCCC2)cc1)S(C)(=O)=O,"inconclusive [inhibitor, partial curve]",
CCOC(=O)c1ccc(NC(=O)Cn2cc(C(=O)c3cccs3)c3ccccc32)cc1,"inconclusive [inhibitor, single point]",
Cc1cccc(OC(=O)c2nc(SCc3ccccc3F)ncc2Cl)c1,inactive,
C[C@H](CO)N1C[C@H](C)[C@@H](CN(C)S(=O)(=O)c2ccccc2)Oc2ccc(NS(=O)(=O)c3ccc(F)cc3)cc2C1=O,inactive,

SMILES,Potency,"activity change, negative = growth inhibition"
Cc1cc(C(=O)Nc2ccccc2C)c2ccccc2n1,inactive,
COc1cc(/C=N/NC(=O)COc2cccc(F)c2)ccc1OS(=O)(=O)c1ccc(C)cc1,active: 25.9 µM,
Cc1nn(C)c(C(=O)NCc2ccc(Cl)cc2)c1Cl,active: 4.11 µM,
CN(C(=O)Cn1cc([N+](=O)[O-])ccc1=O)C1CCCCC1,inactive,
CC(=O)c1ccc(N2CCN(C(=O)c3cc(-c4ccc5c(c4)OCO5)nc4ccccc34)CC2)cc1,active: 23.1 µM,
Cc1ccc(C(=O)OCc2nnc(-c3ccc(Br)cc3)o2)cc1,inactive,
COc1cc2nc(Nc3ccc(C)c(C)c3)nc(N)c2cc1OC,active: 14.6 µM,
O=C(CCN1CCOCC1)N1CCc2c([nH]c3ccccc23)C1c1cccc(Cl)c1 (configuration not stated),"inconclusive [inhibitor, single point]",
CC(NS(C)(=O)=O)C(c1cccs1)N1CCN(Cc2ccccc2)CC1 (configuration not stated),"inconclusive [inhibitor, single point]",
Cc1nc2ccn(Cc3cccs3)c(=O)c2cc1C(=O)NCc1ccc(Cl)cc1,active: 16.4 µM,
Cc1ccc(Nc2nc3c(S(=O)(=O)c4ccccc4)nnn3c3ccc(Cl)cc23)c(C)c1,"inconclusive [inhibitor, single point]",
COc1cc2[nH]c(=S)nc(NCCc3ccc(C)cc3)c2cc1OC,,inconclusive: -35.6% [inhibitor]
O=C(N/N=C/c1c[nH]c2ccc(Br)cc12)c1ccn(Cc2ccc(Cl)cc2)n1,active: 20.6 µM,
Cc1nn(CC(=O)NCCc2ccccc2Cl)c(=O)c2nn(-c3ccccc3)c(C)c12,inactive,
Cc1ccccc1N1CC(O)(c2ccccc2)[N+]2=C1SCC2 (configuration not stated),"inconclusive [inhibitor, single point]",
C=CCN(Cc1nc(-c2ccccc2)no1)C(=O)c1ccoc1C,"inconclusive [inhibitor, partial curve, poor fit]",
O=C(c1ccc(C(F)(F)F)cc1)N(Cc1cc2ccc(F)cc2nc1N1CCOCC1)C1CC1,"inconclusive [inhibitor, single point]",
O=C1[C@H]2[C@@H](c3ccc(C(F)(F)F)cc3)N[C@]3(CCCN(Cc4ccc(F)cc4)C3=O)[C@H]2C(=O)N1Cc1ccccc1,"inconclusive [inhibitor, single point]",
O=S(=O)(c1ccccc1)N1CCC2(CCN(C(c3ccccc3)c3ccccc3)CC2)CC1,"inconclusive [inhibitor, single point]",
Fc1ccc2[nH]c3c(NCc4ccco4)ncnc3c2c1,active: 8.91 µM,
Cc1ccc(Cl)cc1NS(=O)(=O)c1ccc2c(c1)NC(=O)C(C)C(=O)N2 (configuration not stated),,inconclusive: -34.2% [inhibitor]
CCNC(=O)NC1(C(=O)N2CCC(Cc3ccccc3)CC2)CCCCC1,inactive,
Cc1ccc(C)c(S(=O)(=O)N2CCC3(CC2)OCCN3S(=O)(=O)c2cccs2)c1,"inconclusive [inhibitor, single point]",
Cc1ccc(/C=C/C(=O)OCC(=O)N2CC(=O)Nc3ccccc32)o1,"inconclusive [inhibitor, single point]",
